{"source": "the supplement of paper PMC11876631", "proteins": {"B1": {"name": "ppc L778W (protein)", "chain": "MNEQYSALRSNVSMLGKVLGETIKDALGEHILERVETIRKLSKSSRAGNDANRQELLTTLQNLSNDELLPVARAFSQFLNLANTAEQYHSISPKGEAASNPEVIARTLRKLKNQPELSEDTIKKAVESLSLELVLTAHPTEITRRTLIHKMVEVNACLKQLDNKDIADYEHNQLMRRLRQLIAQSWHTDEIRKLRPSPVDEAKWGFAVVENSLWQGVPNYLRELNEQLEENLGYKLPVEFVPVRFTSWMGGDRDGNPNVTADITRHVLLLSRWKATDLFLKDIQVLVSELSMVEATPELLALVGEEGAAEPYRYLMKNLRSRLMATQAWLEARLKGEELPKPEGLLTQNEELWEPLYACYQSLQACGMGIIANGDLLDTLRRVKCFGVPLVRIDIRQESTRHTEALGELTRYLGIGDYESWSEADKQAFLIRELNSKRPLLPRNWQPSAETREVLDTCQVIAEAPQGSIAAYVISMAKTPSDVLAVHLLLKEAGIGFAMPVAPLFETLDDLNNANDVMTQLLNIDWYRGLIQGKQMVMIGYSDSAKDAGVMAASWAQYQAQDALIKTCEKAGIELTLFHGRGGSIGRGGAPAHAALLSQPPGSLKGGLRVTEQGEMIRFKYGLPEITVSSLSLYTGAILEANLLPPPEPKESWRRIMDELSVISCDVYRGYVRENKDFVPYFRSATPEQELGKLPLGSRPAKRRPTGGVESLRAIPWIFAWTQNRLMLPAWLGAGTALQKVVEDGKQSELEAMCRDWPFFSTRLGMLEMVFAKADLWWAEYYDQRLVDKALWPLGKELRNLQEEDIKVVLAIANDSHLMADLPWIAESIQLRNIYTDPLNVLQAELLHRSRQAEKEGQEPDPRVEQALMVTIAGIAAGMRNTG"}, "B2": {"name": "ppc L778Q (protein)", "chain": "B1 chain with W778Q"}, "B3": {"name": "ppc L778D (protein)", "chain": "B1 chain with W778D"}}, "note": "Positions count from the first letter of the chain named. In names and notes the source's numbering stands. ± gives the standard deviation of the averaged measurements. Laboratory Escherichia coli strains with one amino-acid change in an essential protein, pooled on minimal glucose agar with carbenicillin or gentamicin at twice the control MIC (plus kanamycin and chloramphenicol for the plasmids), 48 h. Fold change of barcode share against drug-free plates; higher = less susceptible. Active = above 20 in both replicates (the paper's putatively resistant). '<' = one read or none on drug, '>' = one read or none on a drug-free plate. Shares are relative, so most strains fall below 1 when a few take over. Listed are strains with at least 15 reads on both drug-free plates, and hits; most hits rest on fewer reference reads. Replicate rank correlation about 0.5. Edits are read from barcodes.", "data": [{"molecular_target": "Escherichia coli (laboratory strain)", "assay": "barcode share on antibiotic plates over drug-free plates; higher = less susceptible", "conditions": "antibiotic: carbenicillin; 2× MIC (3.1 µg/mL)", "protocol": "(§1)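 A pool of E. coli strains, each edited to carry one amino-acid change in an essential protein, was grown for 48 h on minimal glucose agar with or without antibiotic; strain barcodes were sequenced; mean of two replicates.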", "values": [{"protein": "B1", "fold change of barcode share": "0.894 ± 0.074"}, {"protein": "B2", "fold change of barcode share": "1.3 ± 0.37"}, {"protein": "B3", "fold change of barcode share": "1.05 ± 0.024"}]}, {"molecular_target": "Escherichia coli (laboratory strain)", "assay": "barcode share on antibiotic plates over drug-free plates; higher = less susceptible", "conditions": "antibiotic: gentamicin; 2× MIC (MIC 0.45 µg/mL)", "protocol": "as §1", "values": [{"protein": "B1", "fold change of barcode share": "0.0173 ± 0.016"}, {"protein": "B2", "fold change of barcode share": "0.00999 ± 0.0067"}, {"protein": "B3", "fold change of barcode share": "0.0966 ± 0.083"}]}]}
